The IC50 comes from the fitted curve, where viability falls to half of the control; a limit (>, <) means that the fit lies beyond the doses tested. AUC sums up the same curve from the lowest dose to the 256-fold higher top dose; values near 1 show little effect. For some of these results: Any top dose called inferred was calculated from the reported fits. For some of these results: An entry number marks a drug with two screens in the source, which often give different values.
Columns and labels:
Test in all cases: Viability of human cancer cell lines after 72 h of drug (GDSC screen)
[1] = compound: Fc1cc(-c2ccnc(Nc3ccc(-n4cnc(N5CCOCC5)n4)cc3)n2)cc(N2CCOCC2)c1 [JNK-9L]; settings: top dose 5.12 µM; top dose inferred
Description: (§1)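 Human cancer cell lines in 384-well plates, medium with 10% serum, drug for 72 h over a 256-fold dose range (nine 2-fold or five 4-fold steps up to the top dose). Adherent lines were fixed and stained with the nucleic acid dye Syto60, suspension lines read with resazurin; signal relative to control wells, capped at 0 and 100%. One two-parameter sigmoid per drug and line, fitted in a mixed model over all curves with the slope shared within a line.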

[2] = compound: CC(C)(C)c1cc(NC(=O)Nc2ccc(-c3cn4c(n3)sc3cc(OCCN5CCOCC5)ccc34)cc2)no1 [AC220]; settings: top dose 1.024 µM; top dose inferred
Description: as §1

[3] = compound: COc1cc(F)c(F)c(Nc2ccc(I)cc2F)c1NS(=O)(=O)C1(C[C@H](O)CO)CC1 [RDEA119]; settings: top dose 5 µM, top dose inferred
Description: as §1

[4] = compound: NCC(=O)Nc1ccc(-n2nc(C(F)(F)F)cc2-c2ccc3c(ccc4ccccc43)c2)cc1 [OSU-03012]; settings: top dose 16 µM; top dose inferred
Description: as §1

[5] = compound: OC[C@H](Cc1ccccc1)Nc1nc(Oc2ccc3c(c2)CCC3)nc2c1ncn2Cc1ccc(-c2ccccc2)cc1 [QS11]; settings: top dose 10.24 µM
Description: as §1

[6] = compound: C#Cc1cccc(Nc2ncnc3cc(OC)c(OCCCCCCC(=O)NO)cc23)c1 [CUDC-101]; settings: top dose 5.12 µM; top dose inferred
Description: as §1

[7] = compound: O=c1[nH]cc(F)c(=O)[nH]1 [5-Fluorouracil]; settings: top dose 32 µM; top dose inferred
Description: as §1

Cell Line	AUC [1]	IC50 [1] [nM]	AUC [2]	IC50 [2] [nM]	AUC ([3]; screen: GDSC drug entry 1014)	IC50 ([3]; screen: GDSC drug entry 1014) [nM]	AUC ([3]; screen: GDSC drug entry 1526)	IC50 ([3]; screen: GDSC drug entry 1526) [nM]	AUC [4]	IC50 [4] [nM]	AUC [5]	IC50 [5] [nM]	AUC [6]	IC50 [6] [nM]	AUC [7]	IC50 [7] [nM]
WM-115 (melanoma, adherent)	0.96	> 5120	0.885	> 1020	0.551	445	0.69	1210	0.888	> 16000	0.982	> 10200	0.63	796	0.864	> 32000
G-292 Clone A141B1 (osteosarcoma, adherent)	0.842	> 5120	0.959	> 1020	0.825	> 5000	0.862	> 5000	0.661	3670	0.932	> 10200	0.884	> 5120	0.957	> 32000
NCI-H526 (small cell lung carcinoma, suspension)	0.688	1050	0.978	> 1020	0.989	> 5000	0.985	> 5000	0.695	3430	0.916	> 10200	0.569	491	0.708	7500
NCI-H358 (lung adenocarcinoma, adherent)	0.494	308	0.982	> 1020	0.883	> 5000	0.823	3380	0.742	5400	0.962	> 10200	0.489	297	0.747	11300
KMOE-2 (acute myeloid leukaemia, suspension)	0.636	727	0.88	860	0.157	32.7	0.304	94.2	0.864	11600	0.948	> 10200	0.486	295	0.819	15700
COLO-679 (melanoma, adherent)	0.511	345	0.971	> 1020	0.409	171	0.294	75.9	0.651	2760	0.753	3800	0.762	2040	0.885	> 32000
KNS-81-FD (glioma, adherent)	0.823	4570	0.969	> 1020	0.75	2160	0.821	4370	0.866	> 16000	0.966	> 10200	0.607	698	0.858	> 32000
NEC8 (testis, adherent)	0.592	548	0.991	> 1020	0.908	> 5000	0.973	> 5000	0.704	3380	0.921	> 10200	0.479	283	0.393	1070
Calu-6 (lung adenocarcinoma, adherent)	0.511	343	0.984	> 1020	0.833	3910	0.66	936	0.847	14600	0.944	> 10200	0.575	529	0.765	13300
IGR-1 (melanoma, adherent)	0.475	276	0.987	> 1020	0.844	2960			0.64	2310	0.861	7020	0.298	93.9	0.754	9630
SK-HEP-1 (liver, adherent)	0.496	312	0.989	> 1020	0.731	1350	0.818	2580	0.683	3130	0.803	4670	0.575	504	0.947	> 32000
SAS (head and neck, adherent)	0.74	1700	0.98	> 1020	0.811	3030	0.79	2510	0.71	4240	0.725	3030	0.415	183	0.817	20600
K2 (melanoma, adherent)	0.624	777	0.969	> 1020	0.602	648	0.294	68.3	0.832	14700	0.971	> 10200	0.701	1410	0.975	> 32000
42-MG-BA (glioma, adherent)	0.725	1460	0.971	> 1020	0.909	> 5000	0.922	> 5000	0.845	12700	0.985	> 10200	0.62	702	0.724	9130
AU565 (breast, adherent)	0.564	488	0.947	> 1020	0.97	> 5000			0.766	6550	0.841	8360	0.457	242	0.941	> 32000
TT (thyroid, adherent)	0.711	1610	0.982	> 1020	0.973	> 5000	0.965	> 5000	0.868	> 16000	0.904	> 10200	0.932	> 5120	0.979	> 32000
TMK-1 (stomach, adherent)	0.497	313	0.985	> 1020	0.499	310			0.819	9790	0.909	> 10200	0.777	2180	0.958	> 32000
NCI-H2405 (lung adenocarcinoma, adherent)	0.686	1130	0.98	> 1020	0.733	1560	0.802	2770	0.678	3330	0.925	> 10200	0.751	1850	0.97	> 32000

Cell Line	AUC [1]	IC50 [1] [nM]	AUC [2]	IC50 [2] [nM]	AUC ([3]; screen: GDSC drug entry 1014)	IC50 ([3]; screen: GDSC drug entry 1014) [nM]	AUC ([3]; screen: GDSC drug entry 1526)	IC50 ([3]; screen: GDSC drug entry 1526) [nM]	AUC [4]	IC50 [4] [nM]	AUC [5]	IC50 [5] [nM]	AUC [6]	IC50 [6] [nM]	AUC [7]	IC50 [7] [nM]
NCI-H1581 (large cell lung carcinoma, semi-adherent)	0.749	1540	0.97	> 1020			0.909	> 5000	0.869	12800	0.984	> 10200	0.443	227	0.975	> 32000
HCC2218 (breast, suspension)	0.708	1460	0.967	> 1020	0.968	> 5000	0.978	> 5000	0.839	15200	0.891	> 10200	0.642	879	0.74	11800
SUP-M2 (anaplastic large cell lymphoma, suspension)	0.57	475	0.989	> 1020	0.991	> 5000	0.738	1220	0.738	3890	0.929	10000	0.294	99.4	0.111	186
A101D (melanoma, adherent)	0.44	212	0.981	> 1020	0.564	488	0.602	636	0.646	2790	0.861	> 10200	0.651	925	0.925	> 32000
HCC1954 (breast, adherent)	0.573	523	0.969	> 1020	0.925	> 5000	0.86	> 5000	0.793	8720	0.877	> 10200	0.642	844	0.94	> 32000
NCI-H524 (small cell lung carcinoma, suspension)	0.883	4480	0.974	> 1020	0.983	> 5000	0.987	> 5000	0.99	> 16000	0.991	> 10200	0.837	2920	0.991	> 32000
BHT-101 (thyroid, adherent)	0.589	565	0.983	> 1020	0.351	119	0.385	149	0.838	11300	0.982	> 10200	0.528	383	0.824	19900
FU-OV-1 (ovary, adherent)	0.655	989	0.967	> 1020	0.875	> 5000	0.868	> 5000	0.779	8740	0.981	> 10200	0.793	3220	0.982	> 32000
SK-CO-1 (large intestine, adherent)	0.624	687	0.989	> 1020	0.446	225	0.567	470	0.856	11800	0.987	> 10200	0.836	3110	0.768	11300
SK-MM-2 (myeloma, suspension)	0.702	1220	0.935	> 1020	0.987	> 5000			0.811	8950	0.987	> 10200	0.604	624	0.6	3810
769-P (kidney, adherent)	0.546	434	0.983	> 1020			0.835	3720	0.631	2380	0.767	4140	0.657	911	0.607	4050
GCIY (stomach, adherent)	0.388	151	0.984	> 1020	0.681	1070			0.728	4900	0.862	> 10200	0.606	650	0.915	> 32000
MFE-280 (endometrium, adherent)	0.798	3220	0.98	> 1020	0.976	> 5000	0.974	> 5000	0.876	> 16000	0.901	> 10200	0.464	249	0.85	> 32000
EFM-19 (breast, adherent)	0.602	704	0.947	> 1020			0.974	> 5000	0.727	6300	0.975	> 10200	0.439	201	0.914	> 32000
GT3TKB (stomach, adherent)	0.401	177	0.99	> 1020	0.91	> 5000	0.646	753	0.759	4970	0.901	> 10200	0.648	779	0.974	> 32000
EFO-27 (ovary, adherent)	0.517	360	0.978	> 1020	0.633	799	0.849	> 5000	0.704	4390	0.938	> 10200	0.509	340	0.664	6440
GAMG (glioma, adherent)	0.659	909	0.985	> 1020	0.812	2830	0.911	> 5000	0.695	3650	0.922	> 10200	0.476	274	0.809	17800

Reference: the supplement of paper PMC4967469
